The text below walks through data of the BET-seq Pho4 binding data (Le et al. 2018).

This is one part of the list. Values were computed here from the reads of four pooled replicates and scatter widely.

The test deals with T1, Pho4 (S. cerevisiae) (UniProt P07270).
T1 sequence: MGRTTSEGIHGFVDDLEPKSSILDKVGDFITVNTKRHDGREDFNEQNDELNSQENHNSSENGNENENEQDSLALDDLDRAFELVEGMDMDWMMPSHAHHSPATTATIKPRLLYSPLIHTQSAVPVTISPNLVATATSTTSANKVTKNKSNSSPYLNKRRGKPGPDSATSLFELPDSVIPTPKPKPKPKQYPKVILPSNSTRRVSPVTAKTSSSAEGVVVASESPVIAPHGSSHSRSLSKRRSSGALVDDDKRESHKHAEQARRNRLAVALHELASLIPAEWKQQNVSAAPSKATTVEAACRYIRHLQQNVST
The test can be described thus: relative binding free energy (BET-seq); higher = weaker binding. To be noted: reference: library average.
Turning to GACGGCACGTGAGTAG, the “relative binding free energy” value came out at 0.31 kcal/mol.

Regarding AGTGCCACGTGTTGAG, the “relative binding free energy” value is -0.05 kcal/mol.

In the case of ATAATCACGTGTGCAG, the “relative binding free energy” value amounted to 0.21 kcal/mol.

Regarding TAGTTCACGTGGATGA, the “relative binding free energy” value amounted to 0.24 kcal/mol.

As to TTTTACACGTGTGCGT, the “relative binding free energy” value stood at 0.17 kcal/mol.

On to ACTGGCACGTGAGTGT, for which the “relative binding free energy” value stood at 0.16 kcal/mol.

As to GGTTTCACGTGCAGTG, the “relative binding free energy” value came out at 0.3 kcal/mol.

For AAGTTCACGTGATTTT, the “relative binding free energy” value came to 0.29 kcal/mol.

For the sequence ATGGGCACGTGGGGAT, the “relative binding free energy” value is -0.13 kcal/mol.

Consider GGCTTCACGTGATATG, for which the “relative binding free energy” value came out at 0.39 kcal/mol.

In the case of GGGTACACGTGTATCG, the “relative binding free energy” value came out at 0.12 kcal/mol.

In the case of TGGCCCACGTGGGTAG, the “relative binding free energy” value is -0.19 kcal/mol.

For TGGTTCACGTGTGTAA, the “relative binding free energy” value came out at 0.25 kcal/mol.

On to CTGGGCACGTGGGGGA, for which the “relative binding free energy” value is -0.22 kcal/mol.

Consider TTTGTCACGTGTCCTG, for which the “relative binding free energy” value was found to be 0.1 kcal/mol.

As for ATGGCCACGTGTAGGA, the “relative binding free energy” value came out at 0.01 kcal/mol.

Take GTCGTCACGTGTTTCG: the “relative binding free energy” value came out at 0.2 kcal/mol.

With TGCGCCACGTGGGGTT, the “relative binding free energy” value is -0.15 kcal/mol.

Take CGTATCACGTGGGGTT: the “relative binding free energy” value came out at 0.02 kcal/mol.

With TGGCGCACGTGTGCGG, the “relative binding free energy” value is -0.15 kcal/mol.

For GTACACACGTGATGTT, the “relative binding free energy” value was determined as 0.22 kcal/mol.

With AGATGCACGTGGGTCA, the “relative binding free energy” value was 0.01 kcal/mol.

Take GGGAGCACGTGTTGAA: the “relative binding free energy” value is 0.03 kcal/mol.

Take GTTTACACGTGATTGT: the “relative binding free energy” value is 0.23 kcal/mol.

Take GGCTTCACGTGTTGGC: the “relative binding free energy” value was found to be 0.28 kcal/mol.

Take AGGGCCACGTGTATAT: the “relative binding free energy” value stood at 0.03 kcal/mol.

For the sequence TGGTCCACGTGTCGGG, the “relative binding free energy” value was -0.07 kcal/mol.

In the case of TCGGTCACGTGCTCGG, the “relative binding free energy” value was found to be 0.13 kcal/mol.

As to TGATTCACGTGGTTGT, the “relative binding free energy” value came out at 0.29 kcal/mol.

Take TATGGCACGTGAGTAC: the “relative binding free energy” value was found to be 0.09 kcal/mol.

With GAATTCACGTGGTAAT, the “relative binding free energy” value was found to be 0.34 kcal/mol.

Consider TATAACACGTGATAGT, for which the “relative binding free energy” value came out at 0.11 kcal/mol.

As to TTGCGCACGTGTTGGA, the “relative binding free energy” value is 0.06 kcal/mol.

For the sequence TTTTTCACGTGCTAGG, the “relative binding free energy” value is 0.15 kcal/mol.

For the sequence GTCGACACGTGGGTTA, the “relative binding free energy” value was -0.04 kcal/mol.

For the sequence CAGTGCACGTGTGTTT, the “relative binding free energy” value stood at 0.09 kcal/mol.

In the case of TAAGTCACGTGTTTGT, the “relative binding free energy” value stood at 0.07 kcal/mol.

Consider GGATTCACGTGTGTGA, for which the “relative binding free energy” value turned out to be 0.22 kcal/mol.

With ATGGTCACGTGCGGTA, the “relative binding free energy” value was 0.03 kcal/mol.

On to TGTTACACGTGAGTTA, for which the “relative binding free energy” value is 0.23 kcal/mol.

Turning to TTTAGCACGTGGCATG, the “relative binding free energy” value is -0.09 kcal/mol.

With GGACTCACGTGTTAGG, the “relative binding free energy” value turned out to be 0.19 kcal/mol.

For the sequence TGAGTCACGTGCAGTG, the “relative binding free energy” value was found to be 0.09 kcal/mol.

Turning to ATCGTCACGTGGATTG, the “relative binding free energy” value was 0.09 kcal/mol.

Turning to TGGGGCACGTGTAATT, the “relative binding free energy” value was 0.06 kcal/mol.

Regarding TAGGGCACGTGTAATT, the “relative binding free energy” value turned out to be 0.06 kcal/mol.

With TATTTCACGTGGCGCT, the “relative binding free energy” value is 0.23 kcal/mol.

Take CCTGGCACGTGGGGCT: the “relative binding free energy” value is -0.23 kcal/mol.

Consider GAATACACGTGTTTTA, for which the “relative binding free energy” value was 0.15 kcal/mol.

For TATGGCACGTGGTGCG, the “relative binding free energy” value is -0.19 kcal/mol.

In the case of GTCGGCACGTGTAGGC, the “relative binding free energy” value came out at 0.21 kcal/mol.

In the case of GATGCCACGTGGGGCT, the “relative binding free energy” value was -0.14 kcal/mol.

Regarding GCGGACACGTGAGGTT, the “relative binding free energy” value was 0.3 kcal/mol.

Turning to TGGTCCACGTGGACTG, the “relative binding free energy” value was 0.07 kcal/mol.

Consider ATGGCCACGTGTCGTG, for which the “relative binding free energy” value was -0.1 kcal/mol.

As to TTTGACACGTGTGGTG, the “relative binding free energy” value turned out to be 0.08 kcal/mol.

As for TGTAACACGTGAAGTG, the “relative binding free energy” value was 0.19 kcal/mol.

With TTTGGCACGTGTAAGT, the “relative binding free energy” value turned out to be 0.05 kcal/mol.

As to ATTAACACGTGTTTTT, the “relative binding free energy” value came to 0 kcal/mol.

As to ATGATCACGTGAATTT, the “relative binding free energy” value is 0.29 kcal/mol.

As to AAAGTCACGTGAAGAG, the “relative binding free energy” value turned out to be 0.52 kcal/mol.

For CTGGTCACGTGGGCGG, the “relative binding free energy” value was 0 kcal/mol.

For the sequence ATGTACACGTGGGAAT, the “relative binding free energy” value is 0.03 kcal/mol.

Consider GTAATCACGTGTAGGC, for which the “relative binding free energy” value came out at 0.17 kcal/mol.

Consider TAAGTCACGTGGGGGA, for which the “relative binding free energy” value is -0.02 kcal/mol.

TGCATCACGTGCGTGG: the “relative binding free energy” value was -0.01 kcal/mol.

Consider TTTAACACGTGGTACA, for which the “relative binding free energy” value was found to be 0.01 kcal/mol.

For the sequence CAGTGCACGTGTTGTA, the “relative binding free energy” value was 0 kcal/mol.

AGGTTCACGTGAGGTT: the “relative binding free energy” value was 0.38 kcal/mol.

In the case of AGTGCCACGTGGTCGT, the “relative binding free energy” value was -0.26 kcal/mol.

On to TAGGTCACGTGGTTGG, for which the “relative binding free energy” value stood at 0.01 kcal/mol.

On to GGTTTCACGTGAGGGT, for which the “relative binding free energy” value was 0.32 kcal/mol.

As for AGATGCACGTGTGGCG, the “relative binding free energy” value is -0.04 kcal/mol.

Consider TATCACACGTGTGGTT, for which the “relative binding free energy” value came to 0.08 kcal/mol.

With GAATACACGTGTTGGG, the “relative binding free energy” value was determined as 0.06 kcal/mol.

Take GTTGGCACGTGTTTGG: the “relative binding free energy” value was 0 kcal/mol.

For TGAGGCACGTGGGGAG, the “relative binding free energy” value is -0.17 kcal/mol.

Regarding TATAGCACGTGTAAAG, the “relative binding free energy” value was determined as 0.17 kcal/mol.

In the case of TAATACACGTGTGTGA, the “relative binding free energy” value is -0.06 kcal/mol.

On to CTTTTCACGTGGTCGG, for which the “relative binding free energy” value came to 0.26 kcal/mol.

In the case of TTTCTCACGTGAGGAT, the “relative binding free energy” value was 0.26 kcal/mol.

As for GCTGACACGTGTGTTT, the “relative binding free energy” value amounted to 0.16 kcal/mol.

Take TGTCGCACGTGCGGGG: the “relative binding free energy” value was -0.06 kcal/mol.

TTGTGCACGTGTCGTA: the “relative binding free energy” value is -0.12 kcal/mol.

GGACGCACGTGTAGAG: the “relative binding free energy” value is -0.01 kcal/mol.

Take GTGGGCACGTGTGGCT: the “relative binding free energy” value was 0.07 kcal/mol.

For GGTGACACGTGTCTTT, the “relative binding free energy” value was determined as 0.19 kcal/mol.

In the case of GTTAACACGTGCGTGG, the “relative binding free energy” value was -0.01 kcal/mol.

For ATGTACACGTGTGATT, the “relative binding free energy” value turned out to be 0.11 kcal/mol.

Consider CCTCGCACGTGGGGGG, for which the “relative binding free energy” value was -0.38 kcal/mol.

For the sequence TGGAGCACGTGGCTCG, the “relative binding free energy” value was -0.15 kcal/mol.

Turning to CTAAACACGTGGATGG, the “relative binding free energy” value is 0.05 kcal/mol.

On to GGGATCACGTGATTGT, for which the “relative binding free energy” value came to 0.3 kcal/mol.

Take CTTCGCACGTGAGGGG: the “relative binding free energy” value came out at 0.05 kcal/mol.

As to TTTCTCACGTGTATTT, the “relative binding free energy” value turned out to be 0.15 kcal/mol.

ATTGTCACGTGTTCAA: the “relative binding free energy” value worked out at 0.08 kcal/mol.

As for CGTCACACGTGTGTTG, the “relative binding free energy” value was 0.13 kcal/mol.

Regarding TGCGGCACGTGGCGGC, the “relative binding free energy” value is -0.13 kcal/mol.

Take TGGAACACGTGGTGGG: the “relative binding free energy” value is 0.14 kcal/mol.

CAAGTCACGTGGTGGT: the “relative binding free energy” value is 0.07 kcal/mol.

Take CGGTGCACGTGATGAT: the “relative binding free energy” value turned out to be 0.17 kcal/mol.

Turning to GGGGTCACGTGGGAAG, the “relative binding free energy” value turned out to be 0.14 kcal/mol.

GGTGACACGTGTTTAG: the “relative binding free energy” value was -0.03 kcal/mol.

With GGTTGCACGTGCTCTG, the “relative binding free energy” value was -0.03 kcal/mol.

Consider ATCAGCACGTGTGAGT, for which the “relative binding free energy” value was -0.05 kcal/mol.

Turning to AAAGTCACGTGTCGTG, the “relative binding free energy” value stood at 0.14 kcal/mol.

As for TGGGTCACGTGTCACT, the “relative binding free energy” value was determined as 0.02 kcal/mol.

Take AACGTCACGTGGATGG: the “relative binding free energy” value is 0.2 kcal/mol.

Take TGTTGCACGTGAGTTT: the “relative binding free energy” value was 0.09 kcal/mol.

In the case of AATGTCACGTGCGCGG, the “relative binding free energy” value was -0.1 kcal/mol.

For TTTCTCACGTGGTAGG, the “relative binding free energy” value stood at 0.19 kcal/mol.

For the sequence ATTGTCACGTGTGGAT, the “relative binding free energy” value came out at 0.23 kcal/mol.

TAGTGCACGTGAACGG: the “relative binding free energy” value came out at 0.28 kcal/mol.

For ATTTGCACGTGGTAAA, the “relative binding free energy” value is -0.07 kcal/mol.

As to TCGATCACGTGGAGGG, the “relative binding free energy” value worked out at 0.02 kcal/mol.
